Experimental data taken from PMC12820563, “FoxP3 forms a head-to-head dimer in vivo and stabilizes its multimerization on adjacent microsatellites”.
The list shows a part of the results.

Biological target: T1, MBP-FoxP1dN (Mus musculus, UniProt P58462 326-579)
T1 sequence: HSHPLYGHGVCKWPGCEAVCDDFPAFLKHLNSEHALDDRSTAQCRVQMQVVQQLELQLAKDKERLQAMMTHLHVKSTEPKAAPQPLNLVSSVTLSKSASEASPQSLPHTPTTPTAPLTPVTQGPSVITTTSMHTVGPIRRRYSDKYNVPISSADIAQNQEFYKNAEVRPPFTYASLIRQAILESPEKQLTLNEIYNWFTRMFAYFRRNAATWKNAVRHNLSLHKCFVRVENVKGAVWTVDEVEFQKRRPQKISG
Test: PD-seq (MBP pull-down with sequencing); 20 mM Tris-HCl pH 7.5, 100 mM NaCl, 1.5 mM MgCl2, 0.4 uM protein, 0.1 uM dsDNA library, 30 min, room temperature, amylose pull-down; high values mean tight binding
Conditions: protein: recombinant; tags: His6-MBP; chain copies: 2; dsDNA, one strand shown
In short: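 Binding is given as reads-per-million enrichment, pull-down over input, with replicates pooled. The bait was an N-terminus-lacking mouse FoxP3 or FoxP1 fragment with a His6-MBP tag, expressed in E. coli and used at 0.4 µM with 0.1 µM Klenow-filled degenerate double-stranded DNA library for 30 min at room temperature in Tris pH 7.5 buffer with NaCl and MgCl2. Amylose resin pull-down with three washes was followed by proteinase K release, PCR barcoding and Illumina sequencing.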

| Sequence | binding signal |
| --- | --- |
| GATGATTGTTCTCCCAGCTGATGAATTAAATTGATCGAGTAAACAAATTTTCCTAATCTTTCTGTTCAAGCGCCATCTAC | 1.03 RPM ratio (pull-down/input) |
| GATGATTGTTCTCCCAGCTGATGAATTCTGCTCTTCGAGTAAACAAATTTTCCTAATCTTTCTGTTCAAGCGCCATCTAC | 0.841 RPM ratio (pull-down/input) |
| GATGATTGTTCTCCCAGCTGATGAATTGTTGCATTCGAGTAAACAAATTTTCCTAATCTTTCTGTTCAAGCGCCATCTAC | 1.87 RPM ratio (pull-down/input) |
| GATGATTGTTCTCCCAGCTGATGAATTGACTGGTTCGAGTAAACAAATTTTCCTAATCTTTCTGTTCAAGCGCCATCTAC | 0.922 RPM ratio (pull-down/input) |
| GATGATTGTTCTCCCAGCTGATGAATTTACAACATCGAGTAAACAAATTTTCCTAATCTTTCTGTTCAAGCGCCATCTAC | 1.67 RPM ratio (pull-down/input) |
| GATGATTGTTCTCCCAGCTGATGAATTTACCGGGTCGAGTAAACAAATTTTCCTAATCTTTCTGTTCAAGCGCCATCTAC | 0.944 RPM ratio (pull-down/input) |
| GATGATTGTTCTCCCAGCTGATGAATTCAAGTAATCGAGTAAACAAATTTTCCTAATCTTTCTGTTCAAGCGCCATCTAC | 1.37 RPM ratio (pull-down/input) |
| GATGATTGTTCTCCCAGCTGATGAATTAAGGGTCTCGAGTAAACAAATTTTCCTAATCTTTCTGTTCAAGCGCCATCTAC | 0.84 RPM ratio (pull-down/input) |
| GATGATTGTTCTCCCAGCTGATGAATTCGTAAATTCGAGTAAACAAATTTTCCTAATCTTTCTGTTCAAGCGCCATCTAC | 1.02 RPM ratio (pull-down/input) |
| GATGATTGTTCTCCCAGCTGATGAATTCTAGAAGTCGAGTAAACAAATTTTCCTAATCTTTCTGTTCAAGCGCCATCTAC | 0.867 RPM ratio (pull-down/input) |
| GATGATTGTTCTCCCAGCTGATGAATTGGCCGCCTCGAGTAAACAAATTTTCCTAATCTTTCTGTTCAAGCGCCATCTAC | 0.831 RPM ratio (pull-down/input) |
| GATGATTGTTCTCCCAGCTGATGAATTAGGAGTCTCGAGTAAACAAATTTTCCTAATCTTTCTGTTCAAGCGCCATCTAC | 0.849 RPM ratio (pull-down/input) |
| GATGATTGTTCTCCCAGCTGATGAATTGGCAGTCTCGAGTAAACAAATTTTCCTAATCTTTCTGTTCAAGCGCCATCTAC | 0.811 RPM ratio (pull-down/input) |
| GATGATTGTTCTCCCAGCTGATGAATTCATCGAATCGAGTAAACAAATTTTCCTAATCTTTCTGTTCAAGCGCCATCTAC | 0.935 RPM ratio (pull-down/input) |
| GATGATTGTTCTCCCAGCTGATGAATTGGTTACATCGAGTAAACAAATTTTCCTAATCTTTCTGTTCAAGCGCCATCTAC | 1.09 RPM ratio (pull-down/input) |
| GATGATTGTTCTCCCAGCTGATGAATTTAAAGCTTCGAGTAAACAAATTTTCCTAATCTTTCTGTTCAAGCGCCATCTAC | 0.839 RPM ratio (pull-down/input) |
| GATGATTGTTCTCCCAGCTGATGAATTAACCCACTCGAGTAAACAAATTTTCCTAATCTTTCTGTTCAAGCGCCATCTAC | 0.883 RPM ratio (pull-down/input) |
| GATGATTGTTCTCCCAGCTGATGAATTTGGAGAGTCGAGTAAACAAATTTTCCTAATCTTTCTGTTCAAGCGCCATCTAC | 0.9 RPM ratio (pull-down/input) |
| GATGATTGTTCTCCCAGCTGATGAATTCCGTCACTCGAGTAAACAAATTTTCCTAATCTTTCTGTTCAAGCGCCATCTAC | 0.773 RPM ratio (pull-down/input) |
| GATGATTGTTCTCCCAGCTGATGAATTCAGACCGTCGAGTAAACAAATTTTCCTAATCTTTCTGTTCAAGCGCCATCTAC | 0.827 RPM ratio (pull-down/input) |

| Sequence | binding signal |
| --- | --- |
| GATGATTGTTCTCCCAGCTGATGAATTCACTGAGTCGAGTAAACAAATTTTCCTAATCTTTCTGTTCAAGCGCCATCTAC | 0.811 RPM ratio (pull-down/input) |
| GATGATTGTTCTCCCAGCTGATGAATTAACTCGATCGAGTAAACAAATTTTCCTAATCTTTCTGTTCAAGCGCCATCTAC | 0.884 RPM ratio (pull-down/input) |
| GATGATTGTTCTCCCAGCTGATGAATTATAATCCTCGAGTAAACAAATTTTCCTAATCTTTCTGTTCAAGCGCCATCTAC | 0.973 RPM ratio (pull-down/input) |
| GATGATTGTTCTCCCAGCTGATGAATTCGGACTGTCGAGTAAACAAATTTTCCTAATCTTTCTGTTCAAGCGCCATCTAC | 0.743 RPM ratio (pull-down/input) |
| GATGATTGTTCTCCCAGCTGATGAATTGAGATCCTCGAGTAAACAAATTTTCCTAATCTTTCTGTTCAAGCGCCATCTAC | 0.799 RPM ratio (pull-down/input) |
| GATGATTGTTCTCCCAGCTGATGAATTGAAACGGTCGAGTAAACAAATTTTCCTAATCTTTCTGTTCAAGCGCCATCTAC | 0.831 RPM ratio (pull-down/input) |
| GATGATTGTTCTCCCAGCTGATGAATTACGCTTGTCGAGTAAACAAATTTTCCTAATCTTTCTGTTCAAGCGCCATCTAC | 1.01 RPM ratio (pull-down/input) |
| GATGATTGTTCTCCCAGCTGATGAATTGCTCAGATCGAGTAAACAAATTTTCCTAATCTTTCTGTTCAAGCGCCATCTAC | 0.962 RPM ratio (pull-down/input) |
| GATGATTGTTCTCCCAGCTGATGAATTTAATCGCTCGAGTAAACAAATTTTCCTAATCTTTCTGTTCAAGCGCCATCTAC | 0.921 RPM ratio (pull-down/input) |
| GATGATTGTTCTCCCAGCTGATGAATTATTCTCATCGAGTAAACAAATTTTCCTAATCTTTCTGTTCAAGCGCCATCTAC | 1.1 RPM ratio (pull-down/input) |
| GATGATTGTTCTCCCAGCTGATGAATTGTTAATGTCGAGTAAACAAATTTTCCTAATCTTTCTGTTCAAGCGCCATCTAC | 1.5 RPM ratio (pull-down/input) |
| GATGATTGTTCTCCCAGCTGATGAATTGCACGACTCGAGTAAACAAATTTTCCTAATCTTTCTGTTCAAGCGCCATCTAC | 1.06 RPM ratio (pull-down/input) |
| GATGATTGTTCTCCCAGCTGATGAATTTTGACGGTCGAGTAAACAAATTTTCCTAATCTTTCTGTTCAAGCGCCATCTAC | 0.854 RPM ratio (pull-down/input) |
| GATGATTGTTCTCCCAGCTGATGAATTAAAAAATTCGAGTAAACAAATTTTCCTAATCTTTCTGTTCAAGCGCCATCTAC | 0.963 RPM ratio (pull-down/input) |
| GATGATTGTTCTCCCAGCTGATGAATTGGGGTTTTCGAGTAAACAAATTTTCCTAATCTTTCTGTTCAAGCGCCATCTAC | 0.965 RPM ratio (pull-down/input) |
| GATGATTGTTCTCCCAGCTGATGAATTATGTCCATCGAGTAAACAAATTTTCCTAATCTTTCTGTTCAAGCGCCATCTAC | 1.1 RPM ratio (pull-down/input) |
| GATGATTGTTCTCCCAGCTGATGAATTTAGCAAATCGAGTAAACAAATTTTCCTAATCTTTCTGTTCAAGCGCCATCTAC | 1.21 RPM ratio (pull-down/input) |
| GATGATTGTTCTCCCAGCTGATGAATTCGTAGGGTCGAGTAAACAAATTTTCCTAATCTTTCTGTTCAAGCGCCATCTAC | 0.802 RPM ratio (pull-down/input) |
| GATGATTGTTCTCCCAGCTGATGAATTACTTGGGTCGAGTAAACAAATTTTCCTAATCTTTCTGTTCAAGCGCCATCTAC | 0.844 RPM ratio (pull-down/input) |
| GATGATTGTTCTCCCAGCTGATGAATTTCTCGTGTCGAGTAAACAAATTTTCCTAATCTTTCTGTTCAAGCGCCATCTAC | 0.851 RPM ratio (pull-down/input) |
